Laboratory results taken from PubChem BioAssay AID686978 (National Center for Advancing Translational Sciences (NCATS), 2013).
The campaign covered roughly 420,000 compounds. About 64,000 (15%) were called active. This list was built around the results that the source calls inconclusive (neither active nor inactive); the mix of calls is not that of the screen. The call rests on the fitted dose curve; in most records, active means well fitted inhibition curve with a large enough effect; inconclusive means small, poorly fitted or top-dose-only effect; inactive means flat fitted curve, though single readings scatter. Potencies of inconclusive entries are left out as doubtful fits.

Assay: qHTS for Inhibitors of human tyrosyl-DNA phosphodiesterase 1 (TDP1): qHTS in cells in absence of CPT; further: nearly all actives have a fitted effect of over 55% in size
Conditions: DT40 Tdp1-/- hTDP1 cells, no CPT, ATP luminescence, 48 h; activity change, negative = growth inhibition: at 46.2 µM (top of the series)
Summary of the method: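 No-CPT arm: Tdp1-/-;hTDP1 DT40 cells (400/well) plus compounds, incubated ≥48 hr at 37 °C. Readout CellTiter-Glo luminescence.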
On the % scale 0 is the no-effect control and ±100 the full control effect; potency means the concentration at half of the fitted maximal effect; tags describe the fitted curve by direction and shape.

SMILES | Potency | activity change, negative = growth inhibition
Cn1c(N2CCN(c3ccccn3)CC2)nc2c1c(=O)n(Cc1ccc(Cl)cc1)c(=O)n2C | inconclusive [inhibitor, single point] | –
CCOC(=O)Nc1ccc2c(c1)N(C(=O)OCCN(C)C)c1ccccc1CC2 | inconclusive [inhibitor, partial curve] | –
C/C(=N\NC(=O)Cc1ccc(O)cc1)c1cccnc1 | – | inactive: 19.5%
CCOC(=O)c1ccc(NC(=S)N2CCCC(C)C2)cc1 (stereo not given) | inconclusive [inhibitor, single point] | –
COc1cccc(-c2nc(CC(=O)O)cs2)c1OC | – | inactive: 1.69%
CCOc1cc(/C=N/NC(=O)CNc2ccc(C)cc2)ccc1OC(=O)c1ccccc1 | inconclusive [inhibitor, single point] | –
CC(=O)c1ccccc1NC(=O)COC(=O)CSCC(=O)Nc1cc(C)on1 | – | inactive: -0.728%
COCCNc1nc2c(-c3cccc(C(F)(F)F)c3)nnn2c2ccccc12 | – | inactive: -20.8%
Cn1cnc([N+](=O)[O-])c1S(=O)(=O)Oc1ccccc1 | active: 1.03 µM | –
Cc1ccc2nc(SCC(=O)Nc3cccc(S(=O)(=O)NC4=NCCCCC4)c3)[nH]c2c1 | inconclusive [inhibitor, partial curve] | –
CN1N=C2c3ccccc3CCCC2C1c1ccc(F)cc1 (stereo not given) | inconclusive [inhibitor, partial curve] | –
O=C(C1CCC1)N1CCc2cc(S(=O)(=O)N3CCCCC3)ccc21 | inconclusive [inhibitor, single point] | –
O=C(CC(=O)NCc1ccc(Cl)cc1)NCc1ccccc1 | – | inactive: 2.14%
CCN=C1NN=C(c2cc(C)n(Cc3ccco3)c2C)CS1 | active: 18.4 µM | –
CCN(CC)S(=O)(=O)c1ccc(N(C)CCc2ccc(OC)c(OC)c2)nc1 | active: 20.6 µM | –
COc1ccc(C2C(C(=O)NCCCN3CCOCC3)c3ccccc3C(=O)N2c2ccc(OC)cc2)cc1 (stereo not given) | – | inactive: -15.8%
CCc1nnc(NC(=O)c2cc(S(=O)(=O)N3CCOCC3)ccc2N2CCCCC2)s1 | inconclusive [inhibitor, partial curve, poor fit] | –
COc1nc(OC)nc(N2CCC(C(=O)Nc3cccc4ccccc34)CC2)n1 | inconclusive [inhibitor, single point] | –
CC(=O)N1CC(C)c2scc(C)[n+]2-c2ccccc21 (stereo not given) | – | inconclusive: -31.2% [inhibitor]
COc1ccc(OC)c(NC(=O)c2c(NCc3sccc3C)sc3c2CCCCC3)c1 | active: 2.59 µM | –
O=C(NC1CCCC1)C(c1ccco1)N1CCN(c2c(Cl)cncc2Cl)CC1 (stereo not given) | inconclusive [inhibitor, single point] | –
CN(Cc1cn(C)nc1-c1ccc(Oc2ccccc2)cc1)Cc1cnc2ccccn12 | active: 20.6 µM | –
CCNC(=O)CC1C(=O)N(c2ccc(OC)cc2)C(=O)N1CCOC (stereo not given) | – | inactive: 2.07%

SMILES | Potency | activity change, negative = growth inhibition
O=C(CN1CCN(Cc2ccccc2)CC1)N1CCCc2ccccc21 | inconclusive [inhibitor, partial curve] | –
COc1ccc2nc(SCC(=O)Nc3ccc4c(c3)OCCO4)[nH]c2c1 | – | inactive: -20.9%
O=C1NCCCc2c1oc1ccc(O)cc21 | – | inconclusive: -35% [inhibitor]
OC(COc1ccc(OCC(O)CN2CCCCCC2)cc1)CN1CCCCCC1 (stereo not given) | inconclusive [inhibitor, single point] | –
Cc1ccc(N(CCC#N)C(=O)COC(=O)C2CCN(S(=O)(=O)c3ccc(C)c(C)c3)CC2)cc1 | – | inactive: -38.4%
CC(C)CNC(=O)COCc1cc(-c2ccc3c(c2)OCO3)on1 | inconclusive [inhibitor, partial curve, poor fit] | –
COc1ccc2cc3cc(C(=O)NCCCN4CCOCC4)oc3nc2c1 | inconclusive [inhibitor, single point] | –
CC/C(=N\NC(=O)c1c(C)nc2ccccn12)c1ccc(Cl)cc1 | – | inactive: -28.9%
COc1ccc(NS(=O)(=O)c2cccc(C(=O)N3CCN(c4ccccc4O)CC3)c2)cc1 | inconclusive [inhibitor, single point] | –
CCc1ccccc1NC(=O)CCC(=O)N1CCN(C(C)=O)CC1 | – | inactive: 6.08%
CCc1ccccc1NC(=O)/C(=C/c1ccccc1)c1ccccc1 | active: 23.1 µM | –
CCNC(=S)Nc1ccc(OCc2nc3ccccc3s2)cc1 | active: 23.1 µM | –
C[C@H]1CN([C@@H](C)CO)C(=O)c2cccc(NC(=O)c3cnccn3)c2O[C@@H]1CN(C)S(=O)(=O)c1ccc(F)cc1 | inconclusive [inhibitor, single point] | –
Cn1c(/C(C#N)=C2/CCCCCN2)nc2ccccc21 | inconclusive [inhibitor, single point] | –
CC12C(=O)N(c3ccccn3)C(=O)C1C1C=CC2C1 (stereo not given) | inconclusive [inhibitor, full curve, poor fit] | –
CN(Cc1ccccc1)C(=O)c1ccc(NC(=O)Cc2cccc(NC(=O)C3CCCN(C(=O)CCc4ccccc4)C3)c2)cc1 (stereo not given) | inconclusive [inhibitor, single point] | –
COc1ccc(N2CCN(c3oc(COc4ccc(Cl)cc4Cl)nc3C#N)CC2)cc1 | active: 9.2 µM | –
COc1ccc(CNC(=O)CN(c2ccc(C(C)C)cc2)S(=O)(=O)c2c(C)nn(C)c2C)cc1 | inconclusive [inhibitor, single point] | –
CCOC(=O)C1=C(C)N=c2s/c(=C\c3ccncc3)c(=O)n2C1c1ccc2c(c1)OCO2 (stereo not given) | inconclusive [inhibitor, single point] | –
Cc1ccc(CNC(=O)c2ccc3c(c2)S(=O)(=O)c2ccccc2C3=O)cc1 | – | inactive: 6.05%
CCC(=O)N1CCc2cc(Br)cc(S(=O)(=O)CCC(=O)N3CCN(c4ccc(F)cc4)CC3)c21 | inconclusive [inhibitor, single point] | –
O=C(C1CCN(S(=O)(=O)c2ccc(-n3cnnn3)cc2)CC1)N1CCCCC1 | inconclusive [inhibitor, single point] | –
